The source gives no read counts; variants with many changes may rest on few reads.
B1: LINE1-mini (parent)
chain: GGCAGAGCUCAACACAGCGUGGCAAAGUGGCUGUGGCUAGACUGCC

Variants of: B1
Assay: self-cleavage, relative activity (ratio to wild type); higher = more cleavage; in vitro, sequencing; the parent is a self-cleaving ribozyme

Variant | self-cleavage
GGCAGAACUCUACACAGCGUGGCAAAGUGGGUGUGGCUAUACUGAC | 0.03
AGCAGAGCUCAACACAGCGUGGCGAAGUGGCUGUGGCUAGCCUGCC | 0.15
GGCAGAGCUCAACACAGCGUGGCAAAGUGGAUGUGGUUAGAAUGCC | 0.07
GGCAGGUCUCAACACAGCGUCCAAAAGUGGCUGUGGCUAGACUGCC | 0.03
GCCAGAGCUCAAUACAGCGUGGCAAAGCGGCUGUGGUUAGACUGCC | 0.01
GGCAGAGCUCGACGCAGCGCGGCAAAGUGGCUGUGGCUCGACUGCC | 0.08
GGGAGAGCUCAAAACAGCGUGGCAAUGUGGCUGUGGCUAUACUGCC | 0.07
GGCAGACCUCCGCGCAGCGUGGCAAAGUGGCUGUGGCUAGUCUGCC | 0.02
GGCAGAGCUGGCCACAGGGUGGCAAUGUGGCUCUGGCUAGACUGCC | 0.01
GUCAGAGCUCAACACAGCGUGUCAAAGUGGCUGUGGAUAGACUGCC | 0.04
GGCAGAGAUCAACACAGCGCUGCAAAGUGGCAGUGGCUAGACUGCC | 0.13
GGCAGAGCUCAAGACAGAGUGGCAAAGUGGCUGUGGCUAGACUAUC | 0.01
GGCAGAGCUCAUCACAGCGUGGAAAAGUGGCUGUGGCUAGACUGCU | 0.57
GGCAGAGCUCACCACAGCGUGGCAAAAUGGCUGUGGCGAGACUGCC | 0.01
GACAGAUCUCAACACAGCUUGGCAAAGUGGCAGUGGCUAGACUGCC | 0.09
GGAAGAGCUCAGCACAGCGUGGCGAAGUGCCUGUGGCUAGAGGGCC | 0.09
GGCAGAGCGUAACACAGCGUGGCAAAUUGGCUGUGGCUAGACUGCC | 0.03
GUGAGAGAUCAACACAGCGUGGCAAAGUGGCUGUGGCUGGACUGAC | 0.09
GGCAGAGCUCAAAACAGCGUGGCAAAGUGGCUGUGGCUCGACUGUC | 0.07
GGUAGAGCUCAACACAGUGUAGCAAAGAGGCUGUAGCAGGACUGCC | 0.09
GGCAGAGCUCACCACAGCGUGGCAAAGUAGCUGUGGCUAGACUCCC | 0
GGAAGAGCUCAACACAGGGUGGCAAAGUGGCUGUGGCUAGACUGUC | 0.1
GGCAGAGCUCAACACAGCCUAGCAAAGUUGCUGUGGCUAGACUGCC | 0.26

Variant | self-cleavage
GGCAGAGCUCAAUACAGCGUGGCAAAUUGGCUGUGUCUAGACUGCC | 0.01
GGCAGAGCUCAACACAACGUGGCAACGUGCCUCAGGCUAGACUGCC | 0.03
GGCAGGGGUCAACACAGCGUGGUAAAGUGUCUGUGGCUAGACUGCC | 0.07
AGAAGAGCUCUACACAGCGUGGCAAAGUGGCUGUGGCUAGACUGCC | 0.21
GGCAGAGCUCAACAGAGCCUGGCACAGUGGCUGUGGAUAGACUGCA | 0.01
GGCACAGCUGAUGACAGCGUGGCAAAGUGGCUGUGGCUAGACUGCC | 0.02
GGCCUAGCGCAACACAGCGUGGCAAAGUGGCUGUGGCUAGACUGCC | 0.03
GGCAGUGCUAAACACAGCGUCGCAAAGUGGCUGUGGCUAGACUGCC | 0.12
GGCAGUGCUCAACACAGGGUGGCAAAGUGGCUGUGGCUAGACUGCU | 0.8
GGCAGAGCUCAACACCGCGUGGCAAAGUGGCUGUGGCUAAAUUGGC | 0.05
CGCAGAGCUAAACACAGCGUGACAGAGUGGCUGUUGCUAGACUGCA | 0
GGCAGAGCUCAACACAGCGUGGCAUAGUGGCUGUGGGUAGGCUGCC | 0.01
GGCAGAGCUCAACACAGCGUGGCAAAGUGGCUGUGGCUGGACGGCU | 0.04
UGCAAAGCUCAAUACAGCGUGGCAAAGUGGCUGUGGCUAGACUGCC | 0.02
GUAAGAGCUCAACACAGCAUGGAAAAGUGGCUGUGGCUAGACUGCC | 0.17
GGUCGAGAUCAACACAUCGUGGCAAUCUGGCUGUGGCUAGACUGCC | 0.1
GGCAGAGCUCAACACAGCGUGGCUAAGUGGCUGUCGCAAGACUGCC | 0.02
GGCAGCGCUCAACACAGCGUGGCAAAGGGGCUGUCGCUAGACUGCC | 0.02
GGCAAAGAUCAACACAGCGUGGCAAAGUUGCUUUGGCUAGACUGCC | 0.2
CGCACAGCUCAACACUGCGUGGCGAAGUGGCUGUGGCUAGACUGUC | 0.01
GGCAGAGCUCAACACAGCGUGAAGAAGUGGCUGUGGCCAGACUGCC | 1.11
AGCAAAUCUCACCACAGCGUGGCAUAGUGCCUGUGUCUAGACUGCC | 1.05
GGCAGAGCUCAUAACAGCGUGGCAAAUUGGCUGUGGCUACACUGCC | 0.02

Variant | self-cleavage
GGCAGAGCUAAACACAGCGUGGCAAAGUGGCUGGGGCUAGACUUCC | 0
GUCAGAGAUCAACACAACGUGGCAAAGUGGCUGUGGCUAGACUGCC | 0.05
GGCCGAGCACAACACAGCGUGUCAAAGUGGCAGUGGCUAGUCUGCC | 0.16
GGCAGCGCACAACACAGCGUGGCAAUGUGGCUGUUGCUAGACUGCC | 0.03
GGCAGAGCUCAAGACAGCGUGGCAGAGUGGCUGUGGCUAAACUGCC | 0.03
GGCAGAGCACAACACAGCAUGGCACACCGGCUGUGGCUAGACUGCC | 0.04
GGCAGAGCUCAACUCAGCGUGUCAAAGUGGCUGUGGCUAGACUGUC | 0.05
UGCAGAGCUAAACACAUCGUGGCAAAGUGGCUGUAGCUAGACUGCC | 0.01
GGCACAGCUCAACACAGCGUGGCAAAGUGGCUGUGGAUAUACUGCC | 0.04
GGCAGAGCUCAACACAGCGUGGCAAAGUGGCUUUGGUUAGACUGAC | 0.06
GGCAGAGCUCAAUGCAGCGUGGCAAGGUGGCUGUGGGUAGACUGCC | 0.03
GGAAGAACUCAAGACAGCGUGGUAAAGUGGCUGCGGCUAGACUGCC | 0.4
GGCAGAACUCUACACAGCGUGGCAAAGUGGCUGUGGCUAGACUGAC | 0.02
GGCAGAGCUCAACGCAGCGUCGCAUAGUGGCUGUGGCUAGAAUGCC | 0.02
GGCAGAGCUCAACAGAGUGUGGCAAAGUGGUUGUGGCUAGACUGCC | 0.03
GGCAGAGCUCAAAACAGCGUGGCACAGUGGCUGUGGCUAGACUACC | 0.01
GGCAGAGCACAACACAGCGUGGCAAAGUGGCUGUGGCUUGAGUGCC | 0.03
GGCAGAGCUCAACACAGCGUGGUAAAGUGGAUGUGACUAGACUGCC | 0.12
GGCAGAGCUCAACACAGCGUGGCAAAGUGGCAGAGACUAGACUGCC | 0.03
GGCAGCGCUCAAAACUGCGGGGCAAAGUGGCUGUGGCUAGACUGCC | 0.02
GGCAGAGCUCAACAUAGCGUCGCAAAGUGGCUGUGGCGACACUGCC | 0.04
GGCAGGGCUCAACACUGCGUGGCAAAGUGGCGGUGGCUAGGCCGCC | 0.02
GGCAGAGCUCAACACAGCGUGGCAUGGUGGCUGUGGUUAGACUGCC | 0.01

Variant | self-cleavage
GGCAGAGCUCAACACAGCGAGGCAAAGCGGCUGUGGUUAGACUGCC | 0
GGCAGAGCUCAACAUAGCGUGGCAAAUUGGAUGUGGCCAGACUACC | 0.11
GGCAGAUCUCAACACAGCGUGGCAAUGUGGCUGUGGCCGGACUGCC | 0.6
GGCAGCGCUCAACACAGCGUGGCAAAGUGCAUAUGGCUAGACUGCC | 0.03
GGCCGAGGUCAACACAGCGUGGCAAUGUGGCUGUGGUUAGACUGCC | 0.01
GGCAGAGCUCAACACAACGUAGCGAAGUGGCUAUGGCUAGACUGCC | 0.13
GGCAGAACUCAACACAGCGUGGCAAAGUGGCUGUGGUGAGACUGCC | 0.04
UGCAGAGCUCAACACAGCGAGGCAAAGUGGCUGUGGCUAUACUGCC | 0.07
GGCAGAGCUCAACGCAGCGUGGCAAAGUGGGCGUGGCUGGACGGCC | 0
UUCAGAGCUCAACACAGCGUGGCAAAGUGGCUGUGGCCAGACUGCC | 0.03
GGCAGAGCUCUAGAUAGCGUCGAAAAGUGGCUGUGGCUAGACUGCU | 0
GGCAGAGCUCAACACAGCGUGGCAAGGUGUCUGUGGCUAGUCUGCC | 0.72
GGCAGAGCUCAAAACAACGUGGCAAAGUGGCUGUGGCUAGACUGAC | 0.03
GGCAGGGCUCAACACAGCAUGGCAAAGUGGCUGUGGCUAGAAUGUC | 0.12
GGCUGAGAUCAAAACAGCGUGGCAAUGUGGCUGUGGCUAGACUGCC | 0.05
GGAAGAGCGCAACACAGCGCUGCAUAGUGGCUGUGGCUAGACAGCC | 0.1
GACAGAGAUCAACAAAGUGUGGUACAGUGGCUGUGGCUAUACUGCC | 0.12
GGCAGAGCUCAACACAGCGUGGCAAAGAGGGUGUGGCUAGACUGCG | 0.17
GGCUGAGCUCCACACAGCGUGGCAAAAUGGCUGUGGCUAGACUGCC | 0.03
GGCAGAGCUCAACACAGCGCGCCACAGUGGCUGUGGCUAGACUGCC | 0.19
GGAAGAGCUCAACACAGCGUGGAAAAGUGGCUGUAGCUAGACUGCC | 0.12
GGCACAGGUCGACACAGCGUGUCAAAGUGGCUGUGGCUAGAAUGCC | 0.04
GGCAGAGCUCAACACAUCGUGGCAAAGUUGCUGCGCCUAGACUCCC | 0.01

Variant | self-cleavage
GGCUGAGCUCAACACGGCGUGGCAAAGAGGCUGUCGCUAGACUGCC | 0.06
GGCAGAACUCACAACAGCGUGGCAAAGUGGAUGUGGCUAGACUGCC | 0.07
GGCAAAGCUCAACACAGCGUGAUAAAGUGGCCGUUGCUAGACUGCC | 0.03
GGGAGAUCUCAACCCAGCGUGGCAAAGUGGCUGUGGCUAAACUGCC | 0.02
GGCCGAGCUCACCACAGCGUGGAAAAGUGGCUGUGGCUAGACUGCC | 0.15
GGCACAGCUUAUCACAGCGUGGCAAAGUGGCUGUGGCUAGACUGCC | 0.04
CCCAGAGCUCAACACAGCGUGGGAAAGAGGCUGUGGCUAGACUGCC | 0.03
GGCAGAGCUCAACACUGCGUGGCCAAGUGGCUGUGGCUAGAUUGCC | 0.01
GAGAGACCCCAACACAGGGUGGCAAAGUGGCUGGGGCUAGACUGCC | 0.02
GGCAGAGUUAAACACAGCGUGGCAAACAGGCUGUGGUUAGACUGCC | 0.01
GGUAGAGCUCAAAACAGCGGGGAAAAGUGGCUCUGGUUAGACUGCC | 0.01
GGCAGCGCUCAACACAGUGUGGCAAAGUGGCUGUGGCUAGACUCCC | 0.12
GGAAGAGCUCAACACAGCGUGGCAAAAUGGCUGUGGCUCGACUGCC | 0.03
GGCAGAGCUCAACACAGCGGUGCAAAGUGGCUGUGGAUAGAGUGCC | 0.02
GGCCGAGCUCAACACAGCGUGGCAAAGUGGCUGCGGUUAGACUGCC | 0.01
GGCAGAGCUCAACACAGCGUGUCCAAGUGGCUGUGGCUAAACUGCC | 0.06
GGCAGAGCUGAAAACAGCGUGGCAAAGUUGCUGUGGCUAGACUGAC | 0.01
GGCAGAAGUCAACACAGCAUGGCAAAGUGUCUGUGGCUAGACUGCC | 0.07
GACAGAUCUCAACACAGCGUGGCAAAGUCGCUGUGCCUUGACUGCC | 0.03
GCCAGAGCUCAACACAGCGUGGCAAAGUGGCUGUGACAAGACUGCC | 0.1

Reference: the RNAGym collection of RNA variant scans (doi:10.7554/elife.90254)
